# Experimental data: PubChem BioAssay AID686978 (National Center for Advancing Translational Sciences (NCATS), 2013)
# Several values for one entry are separate records, joined by “and”; a condition that tells them apart may be missing. Equal values may be shown once. Hit rate of the full screen: of about 420,000 compounds, about 64,000 (15%) were called active. The shares of active, inactive and inconclusive entries below differ from those in the screen. Calls come from the whole dose curve; as a rule, active = well fitted inhibition curve with a large enough effect; inconclusive = small, poorly fitted or top-dose-only effect; inactive = flat fitted curve, though single readings scatter. Potencies beside an inconclusive call are fits to weak or partial responses and may not hold up.
# Experiment: qHTS for Inhibitors of human tyrosyl-DNA phosphodiesterase 1 (TDP1): qHTS in cells in absence of CPT; note: nearly all actives have a fitted effect of over 55% in size
# Settings: DT40 Tdp1-/- hTDP1 cells, no CPT, ATP luminescence, 48 h; series mostly up to 46.2 µM
# Procedure, shortened: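 Stably hTDP1-transfected Tdp1-null chicken DT40 cells were treated with library compounds minus camptothecin and grown for at least 48 hr at 37 °C, after which cellular ATP was quantified by luminescence.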
# Potency is the fitted concentration of half-maximal effect; tags give direction and shape of the fitted curve.
row,Structure (SMILES),Potency
1,CC(=O)n1cc(C=C2C(=O)NC(=O)NC2=O)c2ccccc21,"inconclusive: 13 µM [inhibitor, partial curve]"
2,CCC(C)n1c(O)c(/C=N/Nc2ccccc2)c(=O)[nH]c1=S (stereo not given),inactive
3,CC(C)(C)c1ccc(C(=O)C2CCCN(Cc3ccon3)C2)cc1 (stereo not given),"inconclusive: 25.9 µM [inhibitor, single point]"
4,Cc1cc(-c2ccccc2)cc(-c2ccccc2)[n+]1CCc1ccccc1,active: 0.206 µM
5,COc1cc(C2c3cc4c(cc3C(O)C3COC(=O)C23)OCO4)cc(OC)c1OC (stereo not given),active: 28.2 nM and active: 73.1 nM
6,COC(=O)C1=C(c2ccc(F)cc2OCc2ccccc2)C[C@@H]2CC[C@H]1N2C(=O)NCc1ccc(C(C)(C)C)cc1,"inconclusive: 23.1 µM [inhibitor, single point]"
7,c1cc2c(c(NC3=NCCN3)c1)CCCC2,"inconclusive: 18.8 µM [inhibitor, partial curve]"
8,O=C1C=C(N2CC2)c2ccccc2C1=O,"inconclusive: 18.4 µM [inhibitor, single point]"
9,O=C1NC(=O)N(c2ccc(F)cc2)C(=O)/C1=C/c1ccc2c(c1)CCCN2Cc1ccccc1,"inconclusive: 16.4 µM [inhibitor, partial curve]"
10,COc1cc(C)c(C(=O)CC(=O)c2c(C)cc(OC)cc2C)c(C)c1,active: 11.6 µM
11,OCCNCCc1c[nH]c2ccc(OCc3ccccc3)cc12,"inconclusive: 29.1 µM [inhibitor, single point]"
12,Nc1cnn(-c2ccccc2)c(=O)c1Cl,inactive
13,Clc1ccc(CSc2nnc(-c3ccccn3)n2Cc2ccco2)cc1Cl,"inconclusive: 18.4 µM [inhibitor, single point]"
14,CCOC(=O)[C@]12Cc3cc(OC)ccc3[C@H]1N(CCC(=O)OC)C(=O)c1cc(OC)ccc12,active: 14.6 µM
15,Cc1cc(Cl)ccc1C(=O)C1CCCN(Cc2ccon2)C1 (stereo not given),"inconclusive: 20.6 µM [inhibitor, partial curve]"
16,COC1=CC=C2[C@H]3Cc4ccc(OC)c5c4[C@@]2(CCN3C)C1O5 (stereo not given in full),inactive
17,Cc1ncoc1C(=O)NCC1=C(c2cccc3ccccc23)C[C@@H]2CC[C@H]1N2Cc1ccco1,"inconclusive: 29.1 µM [inhibitor, single point]"
18,C=CCN1C(=O)c2ccccc2Sc2ccc(C(=O)N3CCC4(CC3)OCCO4)cc21,"inconclusive: 29.1 µM [inhibitor, single point]"
19,COC(=O)c1cn(S(=O)(=O)c2ccccc2)c2ccccc12,active: 25.9 µM
20,COc1ccc(/C=C2\C(=N\O)C3CCN2CC3)cc1,"inconclusive: 29.1 µM [inhibitor, single point]"
21,CCCC1(CCO)C(=O)NC(=S)NC1=O,inactive
22,CNC(=O)Oc1ccccc1C(=O)Nc1ccccc1,"inconclusive: 29.9 µM [inhibitor, single point]"
23,COc1ccc(CCNCc2ccc(C)s2)cc1OC,inactive
24,COc1ccc(Br)cc1CNCCc1cccc(Cl)c1,"inconclusive: 29.1 µM [inhibitor, single point]"
25,COc1ccccc1C(=O)Nc1nnc(-c2ccc(Cl)cc2)o1,"inconclusive: 20.6 µM [inhibitor, single point]"

row,Structure (SMILES),Potency
1,COc1ccc(CNCCc2c[nH]c3ccccc23)cc1OC,active: 18.4 µM
2,NC(=NCCCC(N)C(=O)O)N[N+](=O)[O-] (stereo not given),inactive
3,O=c1cccc2n1CC1CC2CN(Cc2cccc(Cl)c2Cl)C1 (stereo not given),inactive
4,O=Cc1cn(Cc2ccc(F)cc2)c2ccccc12,"inconclusive: 29.1 µM [inhibitor, single point]"
5,CNCC/C=C\c1cccnc1,inactive
6,Cc1cc(C=C2C(=O)N(C)C(=S)N(C)C2=O)c(C)n1-c1ccncc1,"inconclusive: 29.1 µM [inhibitor, single point]"
7,COc1cc2c(cc1OC)C(c1c(O)n(CCc3ccccc3)c(=S)[nH]c1=O)NCC2 (stereo not given),inactive
8,COc1ccc(-n2c(-c3ccco3)nc3ccccc3c2=O)cc1,active: 23.1 µM
9,Cc1cccc(-n2c(-c3ccccc3)nc3ccccc3c2=O)n1,"inconclusive: 20.6 µM [inhibitor, single point]"
10,O=C1NC(=O)C(=Cc2ccc(SC3CCCCC3)o2)C(=O)N1,"inconclusive: 20.6 µM [inhibitor, single point]"
11,CCOc1ccc(Oc2nc(NCC(C)C)nc(N(C)C)n2)nn1,"inconclusive: 25.9 µM [inhibitor, single point]"
12,COc1ccc2[nH]c(C)c(CCNCc3cc(OC)c(OC)c(OC)c3)c2c1,inactive
13,COC(=O)C1=C(c2ccc(Cl)c(C(F)(F)F)c2)C[C@@H]2CC[C@H]1N2C(=O)NCCOc1ccc(OC)cc1,"inconclusive: 20.6 µM [inhibitor, single point]"
14,C#CCOc1cc(C2C3=C(COC3=O)Nc3cc4c(cc32)OCO4)ccc1OC (stereo not given),inactive
15,CCC(C)C1NC(=O)C(C(C)=O)=C1O (stereo not given),"inconclusive: 13 µM [inhibitor, partial curve, poor fit]"
16,O=C1C(=Cc2cn(-c3ccccc3)nc2-c2ccc(OCc3ccc(Cl)cc3)cc2)SC(=S)N1CCS(=O)(=O)O,"inconclusive: 18.4 µM [inhibitor, single point]"
17,CC(CCc1ccccc1)NCCC#N (stereo not given),inactive
18,O=P(c1ccccc1)(c1ccccc1)N(c1ccccc1)c1ccccc1,active: 4.61 µM
19,c1cc2c(cc1[C@H]1OC[C@H]3[C@@H]1CO[C@H]3c1ccc3c(c1)OCO3)OCO2,"inconclusive: 23.1 µM [inhibitor, single point]"
20,CCCn1cc(S(=O)(=O)c2ccc(OC)cc2)c(=O)c2cc(F)c(N3CCCCCC3)cc21,active: 23.1 µM
21,NC(=O)NNc1ccccc1,"inconclusive: 0.266 µM [inhibitor, full curve, poor fit]"
22,Cc1ccccc1N1CCN(C2CCCN(C(=O)COc3ccccc3)C2)CC1 (stereo not given),active: 20.6 µM
23,CC1(C)CC(=O)CC(C)(C)N1O,inactive
24,COc1ccc(C[C@@H]2c3cc(O)c(OC)cc3CCN2C)cc1O,inactive
25,O=C1Nc2ccc(Cl)cc2C(c2ccccc2)=NC1O (stereo not given),"inconclusive: 29.9 µM [inhibitor, single point] and inconclusive: 48.6 µM [inhibitor, single point]"

row,Structure (SMILES),Potency
1,CCCCCn1c(Sc2ccccc2)nc2c1c(=O)[nH]c(=O)n2C,"inconclusive: 18.4 µM [inhibitor, single point]"
2,CCCNC(=O)c1c(N)n(CC2CCCO2)c2nc3ccccc3nc12 (stereo not given),active: 20.6 µM
3,CC(C)NC(C)C(=O)C12CC3CC(CC(C3)C1)C2 (stereo not given),inactive
4,COC(=O)C1=C(c2ccc(OCc3ccccc3)cc2)C[C@@H]2CC[C@H]1N2C(=O)NCc1ccc(C(C)(C)C)cc1,active: 9.2 µM
5,CCCCn1c(O)c(C(CC)=NC(C)c2ccccc2)c(=O)[nH]c1=O (stereo not given),active: 25.9 µM
6,CCc1c(C(=O)OC)ncc2[nH]c3cc(OC)c(OC)cc3c12,active: 6.51 µM
7,CCCCOc1ccc(C(=O)NCCc2csc(-c3ccc(OC)cc3)n2)cc1,active: 4.11 µM
8,Cc1cc(C)cc(Nc2nc3ccc(C)cc3n3cnnc23)c1,"inconclusive: 20.6 µM [inhibitor, partial curve, poor fit]"
9,c1ccc(CNc2ncnc3nc[nH]c23)cc1,"inconclusive: 35.5 µM [inhibitor, single point]"
10,O=C(Nc1c(F)cc(F)cc1F)c1cccn(Cc2ccccc2)c1=O,"inconclusive: 25.9 µM [inhibitor, single point]"
11,CN1CCN(c2ccc(S(=O)(=O)C(F)(F)F)cc2[N+](=O)[O-])CC1,"inconclusive: 16.4 µM [inhibitor, single point]"
12,COc1ccc(OC)c(NC2=NCCCS2)c1,"inconclusive: 29.1 µM [inhibitor, single point]"
13,O[C@@H]1CCCN2C[C@@H](O)[C@@H](O)C12 (stereo not given in full),inactive
14,COc1ccc(NC(=O)CN2C(=O)C(C)N=C(c3ccccc3F)c3cc(Cl)ccc32)c(OC)c1 (stereo not given),"inconclusive: 23.1 µM [inhibitor, single point]"
15,COc1ccc(CN2C(=O)NC(=O)/C(=C/c3ccoc3)C2=O)cc1,"inconclusive: 18.4 µM [inhibitor, single point]"
16,O=C1NC(=O)C(=Cc2cc3c(cc2[N+](=O)[O-])OCO3)C(=O)N1,"inconclusive: 16.4 µM [inhibitor, partial curve, poor fit]"
17,CN1CCN(c2ccc(N)c(N3CCN(C)CC3)c2)CC1,"inconclusive: 18.4 µM [inhibitor, single point]"
18,CCOC(=O)C1(CCOc2ccccc2)CCN(Cc2cnc(SC)nc2)CC1,active: 18.4 µM
19,C=CCc1c(C)nc(C)nc1N/N=C/c1ccc(N(C)C)cc1,active: 20.6 µM
20,Fc1ccccc1CN1Cc2ccccc2-n2nncc2C1,active: 23.1 µM
21,Cc1ccc(O)c(CN2CCN(c3ccccc3)CC2)c1,inactive
22,COc1ccc(C(CNC(=O)c2ccc3c(c2)CCC3)N(C)C)cc1 (stereo not given),"inconclusive: 18.4 µM [inhibitor, single point]"
23,COc1ccc2c(c1)[C@@]13CCCCC1[C@@H](C2)N(C)CC3 (stereo not given in full),active: 16.4 µM
24,O=c1cc(Nc2cccc(Br)c2)[nH]c(=O)[nH]1,"inconclusive: 23.1 µM [inhibitor, single point]"
25,COC(=O)c1cc(NC(=O)Cn2nc(-c3ccccc3)c3c(c2=O)CCCC3)cc(C(=O)OC)c1,active: 18.4 µM
